Laboratory results reported in publication PMC6919601, “Identification of Plasmodium dipeptidyl aminopeptidase allosteric inhibitors by high throughput screening” (PLoS ONE, 2019).
Hit rate of the full screen: of about 110,000 compounds, about 230 (0.21%) showed an effect of 50% or more. This is one part of the list.

Biological target: DPAP1 (Plasmodium falciparum, UniProt Q8IIJ9)
Experiment: primary screen, percent inhibition; read by cleavage of a fluorogenic dipeptide substrate; higher = more effect of the substance
Set-up: species or system P. falciparum D10 trophozoite lysates; single well
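Note: 30 min substrate incubation versus DMSO and 10 µM JCP410 controls.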

Chain of DPAP1 (Q8IIJ9 whole entry, looked up): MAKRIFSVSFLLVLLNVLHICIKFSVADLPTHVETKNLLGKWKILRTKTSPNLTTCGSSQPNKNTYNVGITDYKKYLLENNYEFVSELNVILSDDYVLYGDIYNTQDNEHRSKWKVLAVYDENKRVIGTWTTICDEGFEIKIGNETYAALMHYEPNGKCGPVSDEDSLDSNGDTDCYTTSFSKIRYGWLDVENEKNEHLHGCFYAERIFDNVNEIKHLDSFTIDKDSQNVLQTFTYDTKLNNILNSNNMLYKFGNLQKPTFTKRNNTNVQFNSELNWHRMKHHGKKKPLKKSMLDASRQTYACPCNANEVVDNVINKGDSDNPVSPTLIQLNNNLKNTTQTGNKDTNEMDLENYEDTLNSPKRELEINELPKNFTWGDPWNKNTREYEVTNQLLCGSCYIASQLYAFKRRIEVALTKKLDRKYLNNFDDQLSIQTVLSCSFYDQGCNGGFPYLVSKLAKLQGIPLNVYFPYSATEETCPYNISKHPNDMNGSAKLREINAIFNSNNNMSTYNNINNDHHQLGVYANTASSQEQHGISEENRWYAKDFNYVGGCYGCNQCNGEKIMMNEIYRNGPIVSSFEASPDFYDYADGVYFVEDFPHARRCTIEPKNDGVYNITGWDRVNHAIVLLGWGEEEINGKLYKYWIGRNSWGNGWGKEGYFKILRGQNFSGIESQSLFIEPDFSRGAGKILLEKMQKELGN

| SMILES | % Inhibition @ 10 uM [%] |
| --- | --- |
| O=C1OC(c2ccc(F)cc2)=N/C1=C\C(Cl)=C\c1ccccc1 | -0.972 |
| CC(=O)CC(=O)Nc1c(C)cccc1C | 0.912 |
| N=C1/C(=C/c2cccs2)C(=O)N=C2SC=C(c3ccccc3)N12 | -1.93 |
| COc1ccc(-c2cc(C(F)(F)F)n3ncc(C#N)c3n2)cc1 | -4.28 |
| Cc1ccc(C)c(NC(=O)OCCNC(=O)C2C(C=C(Cl)Cl)C2(C)C)c1 (stereo not drawn) | 4.07 |
| CCS(=O)(=O)N1CCN(Cc2cc(Br)ccc2O)CC1 | -5.28 |
| O=C(O)CC/N=C/c1c(O)oc2ccccc2c1=O | 3.38 |
| COc1ccc(OC)c2c(C)cc(N3CCN(S(=O)(=O)c4ccc(C)cc4)CC3)nc12 | -7.15 |
| COC(=O)c1nnn(-c2cc(Cl)ccc2C)c1C(=O)OC | 1.64 |
| CC(C)CCNC(=O)C1CCCN(S(C)(=O)=O)C1 (stereo not drawn) | 3.79 |
| O=[N+]([O-])c1ccc(N2CCN(Cc3cccc(F)c3)CC2)cc1 | 1.48 |
| COc1cc(OC)c(C2C3=C(O)CCCC3=Nc3nc(SC)nn32)cc1OC (stereo not drawn) | 4.86 |
| O=C(Nc1ccc(F)cc1)c1ccc(C#CC2(O)CCCCC2)cc1 | -4.93 |
| Cc1nn(CC(=O)N2CCN(C)CC2)c(=O)c2c1sc1ccccc12 | 0.85 |
| CSc1ncc(C(=O)NCc2ccccc2C)c(-c2ccccc2)n1 | 2.74 |
| N#CCNC(=O)[C@H](Cc1ccccc1C(F)(F)F)NC(=O)OCc1ccccc1 | -5.2 |
| O=C(O)c1cc(Sc2ccccc2)nc2ccccc12 | 4.37 |
| O=C(O)CCCCCNS(=O)(=O)c1cccc(C(=O)O)c1 | 4.86 |
| CC(CCc1ccco1)NC(=O)c1cc2sc(Cl)cc2n1C (stereo not drawn) | -5.07 |
| CCN(CC)CCn1nc(C)nc1-c1ccccc1O | -1.72 |
| CCOc1ccc(CNCc2c(C(=O)O)n(Cc3ccccc3)c3cc(C)ccc23)cc1 | -2.97 |

| SMILES | % Inhibition @ 10 uM [%] |
| --- | --- |
| C=Cc1ccc(Cn2c(C(=O)O)c(CNCc3ccc(OCC)cc3)c3ccccc32)cc1 | -1.09 |
| Cc1n[nH]c(C)c1CCCCCCOc1ccccc1F | -11.2 |
| COc1ccc(S(=O)(=O)NC2CCCCCC2)cc1 | -0.833 |
| COc1cccc(C(c2c(O)nc(S)nc2O)N2CCOCC2)c1OC (stereo not drawn) | 1.3 |
| C=CCn1c(=N)c(S(=O)(=O)c2ccc(C)cc2)cc2c(=O)n3cc(C)ccc3nc21 | -5.2 |
| CC1CC(C)CN(CCCNC(=O)Cn2nc(Cc3cccnc3)c3ccccc3c2=O)C1 (stereo not drawn) | 21.1 |
| O=C(CSc1cccc2cccnc12)Nc1ccc2ccccc2c1 | 1.08 |
| Cc1ccc(C)c(NC(=O)CN(c2cccc(Cl)c2C)S(C)(=O)=O)c1 | -7.58 |
| Cc1cccc2c(C(=O)O)cc(-c3cccc(Br)c3)nc12 | 2.09 |
| CC1=C(C(=O)N2CCOCC2)C(c2ccc(Cl)cc2)C2=C(O)CCCC2=N1 (stereo not drawn) | -10.9 |
| COc1ccc(C2N=C(N)Nc3nc4ccccc4n32)c(OC)c1 (stereo not drawn) | -1.33 |
| O=C(NCc1cccnc1)C1CCCN(Cc2cnn(-c3ccccc3)c2-n2cccc2)C1 (stereo not drawn) | 6.91 |
| COC(=O)c1ccc(C2SCC(=O)N2CCc2ccccc2)cc1 (stereo not drawn) | -2.98 |
| Cc1ccnc(NS(=O)(=O)c2ccc(-n3cccn3)cc2)c1 | -0.231 |
| CC(=O)c1c(C(C)=O)c(C)n(-c2ccc(C(=O)O)cc2)c1C | 5.13 |
| Cc1ccc(C(=O)N/C(=C\c2cccnc2)C(=O)N2CC3CC(C2)c2cccc(=O)n2C3)cc1 (stereo not drawn) | -3.02 |
| CCc1c(C#N)c(N)nc(SCC(=O)c2ccc(Cl)c(Cl)c2)c1C#N | -0.736 |
| COC(=O)c1sccc1NC(=O)c1sc2ccccc2c1Cl | 5.31 |
| Cc1nn2c(C(F)(F)F)cc(-c3ccc(Cl)cc3)nc2c1C(N)=O | -6.41 |
| COc1ccc(CNC(=O)CCNS(=O)(=O)c2ccc(Br)s2)cc1 | -4.79 |
| O=C(Nc1ccc(Cl)cc1)Nc1ccc(S(=O)(=O)N2CCCCCC2)cc1 | -2.74 |

| SMILES | % Inhibition @ 10 uM [%] |
| --- | --- |
| CCOP(=O)(CN1CCCCCC1=O)OCC | -3.27 |
| C=CCn1c2ccccc2n2cc(-c3ccc(Cl)cc3)nc12 | 1.27 |
| Brc1ccc(OCCCCCN2CCCC2)cc1 | 4.9 |
| Cc1cc(C)c(Cn2c(C)c(CNCc3cccc(Cl)c3)c(C(=O)O)c2C)c(C)c1 | 6.02 |
| COc1ccccc1CNC(=O)c1ccc(CSCc2cccc(F)c2)o1 | -4.53 |
| N=Cc1c(-c2ccccc2)nn(-c2nc3ccccc3s2)c1O | -3.46 |
| O=C(NCCCC[C@H](NC(=O)[C@H](Cc1ccc2ccccc2c1)NC(=O)C1CCNCC1)C(=O)CO)OCc1ccccc1 | -2.35 |
| Cc1ccc(CNC(=O)Cn2ccc3cc(S(=O)(=O)N4CCC(C)CC4)ccc32)o1 | -2.74 |
| CCc1ccc(Cn2nnc(C(=O)O)c2C(=O)O)cc1 | -3.13 |
| O=C(c1ccccc1)N1CCN(C2CC(=O)N(CCc3ccccc3)C2=O)CC1 (stereo not drawn) | 1.91 |
| CN(CCc1ccccn1)C1CCC(c2ccccc2)CC1 (stereo not drawn) | 4.75 |
| O=[N+]([O-])c1ccc(Cl)c(CN2CC=C(c3ccc(F)cc3)CC2)c1 | -0.0648 |
| CC(=O)NC(=O)/C(=C(/C)NCc1ccccc1)c1ccccc1 | -8.38 |
| COc1ccc(C2C(C(=O)C(C)(C)C)=C(O)C(=O)N2Cc2ccccc2)cc1 (stereo not drawn) | -3.94 |
| Oc1c2nc3ccc(F)cc3c-2ncn1CCN1CCC(Cc2ccccc2)CC1 | -5.36 |
| O=C(Nc1nnc(S(=O)(=O)N2CCCCCC2)s1)c1cccs1 | 4.86 |
| CCCCNC(=O)C1CCN(S(=O)(=O)N2CCOCC2)CC1 | -1.56 |
| Cc1ccc(C)c(S(=O)(=O)NCC(=O)N2CCCC2)c1 | 1.87 |
| O=C(CN1C(=O)c2ccccc2S1(=O)=O)Nc1ccc2c(c1)OCO2 | 0.727 |
| CN(CCc1ccccn1)Cc1cccc(Cl)c1Cl | -1.5 |
| CC(C)N(Cc1ccccc1)C(=O)C1CCCN1S(=O)(=O)c1cccc2nsnc12 (stereo not drawn) | -2.48 |
